# The campaign covered roughly 350,000 compounds. About 600 (0.17%) were called active. The shares of active, inactive and inconclusive entries below differ from those in the screen.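 The calls were made as follows: active = every replicate shows inhibition of at least 40%; inconclusive = mean inhibition at least 40% but some replicate below; inactive = the rest.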 The source holds several records for some structures; these can differ, active in one and inactive in another.
# Assay: inhibitors of PGC1a acetylation signal, primary screen, cell-based, U2OS, AlphaScreen, inhibitor mode (AID 651687);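 also: 0% = neutral control wells and 100% = positive control wells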
# Conditions: AlphaScreen anti-acetyl-lysine, at 15.6 µM, hits give high values, with virally co-expressed GCN5 acetyltransferase
row,Structure (SMILES),inhibition
1,Cc1ccc(CN(C(=O)Cn2nnc3ccccc32)C(C(=O)NCc2ccco2)c2cccs2)cc1 (centres undefined),inconclusive: 45.6%
2,CCOc1ccc(NS(=O)(=O)c2ccc3c(c2)oc(=O)n3C)cc1,inconclusive: 46.1%
3,Cc1cccc(S(=O)(=O)N2C[C@@H](O)COC[C@@H]3O[C@@H](CC(=O)NCc4ccc5c(c4)OCO5)CC[C@H]32)c1,inactive: 1.54%
4,CC(=O)c1sc(NS(=O)(=O)c2ccc(C)cc2)nc1C,inactive: 2.23%
5,O=C(COC(=O)c1ccco1)NCc1ccc2c(c1)OCO2,inconclusive: 45.3%
6,O=C(CSc1nc2cc(Cl)ccc2s1)NCC1CCCO1 (centres undefined),inconclusive: 52.1%
7,O=C(N/N=C/c1ccc(O)c2ncccc12)c1cccc(Br)c1,inconclusive: 66.8%
8,CN1CCN(c2ccc([N+](=O)[O-])cc2C(=O)Nc2ccccc2)CC1,inconclusive: 46.4%
9,CCn1c(=N)n(CC(=O)c2ccc(OC)c(OC)c2)c2ccccc21,inconclusive: 46.4%
10,CCOC(=O)CS(=O)(=O)c1nc(-c2ccccc2)cc(C(F)(F)F)n1,active: 58.2%
11,CC(C)c1cccc(NC(=O)C[C@H]2CC[C@H]3[C@@H](COc4ccc(NC(=O)NCc5ccccc5)cc4C(=O)N3C)O2)c1,inactive: -3.38%
12,COc1ccc(CCN2C(=O)N(c3ccc(OC)cc3)C(=O)C2CC(=O)Nc2ccccc2)cc1 (centres undefined),inconclusive: 48.1%
13,COc1ccc(N=C2SC(C(N)=O)CC(=O)N2Cc2ccc3c(c2)OCO3)cc1 (centres undefined),inconclusive: 54.1%
14,Cc1cc(C)c2oc(C(=O)N(Cc3ccccc3)c3ccccn3)cc(=O)c2c1,inconclusive: 46.3%
15,c1ccc(C(c2nnnn2Cc2cccs2)N2CCN(C3CCCC3)CC2)cc1 (centres undefined),inconclusive: 42.2%
16,CCCCn1c(=O)[nH]c(=O)c2c1nc(-c1ccc(OCCC)c(OCC)c1)n2C,inconclusive: 52.5%
17,O=C(CCl)Nc1cc(SCC(O)CO)cc([N+](=O)[O-])c1 (centres undefined),active: 52.5%
18,O=C(C[C@H]1CC[C@@H](NS(=O)(=O)c2ccc(F)cc2)[C@H](CO)O1)N1CCN(c2ccccc2)CC1,inconclusive: 49.7%
19,CCc1nnc(N/N=C/c2ccccc2Cl)n1N,active: 72.1%
20,CCCCS(=O)(=O)/C=C\C=C/S(=O)(=O)CCCC,active: 97%
21,COc1ccc(-c2cnc3c(c2)C(=O)N([C@H](C)CO)C[C@H](C)[C@H](CN(C)S(=O)(=O)c2cccs2)O3)cc1,inconclusive: 49.8%
22,O=C(Cn1ncc(Cl)c(Cl)c1=O)N1CCN(S(=O)(=O)c2ccc3ccccc3c2)CC1,active: 76.7%
23,O=C(O)C[C@@H]1CC[C@@H](NC(=O)c2ccccc2F)[C@@H](CO)O1,inactive: -3.02%
24,C[C@H](CO)N1C[C@H](C)[C@@H](CN(C)CC2CCOCC2)Oc2ncc(Br)cc2C1=O,active: 88.9%
25,CCNC(=O)C[C@H]1CC[C@@H]2[C@H](COC[C@H](O)CN2Cc2ccncc2)O1,inactive: 0.301%
26,Cc1nonc1NC(=O)CSc1nc(C2CCCCC2)nc2ccccc12,inconclusive: 54.7%
27,Cc1cc(C(=O)Nc2cccc3ccccc23)n(-c2ccccc2)n1,inactive: -3.26%

row,Structure (SMILES),inhibition
1,CC(=O)[C@H]1CC[C@H]2[C@@H]3CC=C4C[C@@H](OS(=O)(=O)O)CC[C@]4(C)[C@H]3CC[C@]12C,inconclusive: 46.6%
2,CC1(C(=O)O)CCCN(C(=O)/C=C/c2ccccc2)C1 (centres undefined),inactive: 7.82%
3,COc1ccc(S(=O)(=O)Nc2ccc3c(c2)C(=O)N([C@H](C)CO)C[C@@H](C)[C@H](CN(C)C(=O)Nc2ccc(C(F)(F)F)cc2)OCCCC[C@@H](C)O3)cc1,inconclusive: 41.1%
4,CCn1c(CSc2nnc3ccccn23)nc2cc(C(=O)O)ccc21,inconclusive: 47.5%
5,CC(C)(O)c1cc(=O)sc2nc3ccccc3n12,inconclusive: 49.6%
6,CC(=O)N(CCC(Cc1ccccc1)c1ccc2c(c1)OCO2)Cc1ccccc1F (centres undefined),inconclusive: 40.5%
7,CC(C)(C)NS(=O)(=O)c1ccc(-c2csnn2)s1,inconclusive: 60.6%
8,COc1ccc(C(=C(CC(=O)O)C(=O)OC(C)(C)C)c2cc(OC)c(OC)c(OC)c2)cc1OC,inconclusive: 47.4%
9,C[C@@H]1CN([C@@H](C)CO)C(=O)CCCn2cc(nn2)CO[C@H]1CN(C)S(=O)(=O)c1ccccc1,inconclusive: 47.3%
10,CCCCCC1CC(CC/C(C)=N/NC(N)=O)C(=O)O1 (centres undefined),inactive: -9.45%
11,Cn1c(=O)c2c(ncn2CC(=O)O)n(C)c1=O,inconclusive: 42.7%
12,Oc1ccccc1/C=N/Nc1nc2ccccc2o1,active: 41.2%
13,CC1=C(C(=O)N2CCOCC2)CC(CC(=O)NCC2CCCCC2)C(=O)N1CCC1=CCCCC1 (centres undefined),inactive: 1.8%
14,COc1ccc(S(=O)(=O)N(Cc2cc3ccc(OC)cc3[nH]c2=O)CC2COCCO2)cc1 (centres undefined),inconclusive: 44.5%
15,Cc1noc(C)c1S(=O)(=O)Nc1ccc2c(c1)C(=O)N([C@H](C)CO)C[C@H](C)[C@H](CN(C)C(=O)c1ccncc1)OCCCC[C@@H](C)O2,inconclusive: 41.1%
16,CC(C)COCC(O)CC(Cc1ccccc1)C(=O)NN (centres undefined),inactive: 3.69%
17,C[C@@H]1CN([C@@H](C)CO)C(=O)c2cc(NS(=O)(=O)c3cn(C)cn3)ccc2O[C@@H](C)CCCCO[C@@H]1CN(C)C(=O)CCC(F)(F)F,inactive: -3.81%
18,COc1ccc(CN(Cc2cccn2C)S(=O)(=O)c2ccccc2)cc1,active: 74.3%
19,OCCN(Cc1ccccc1)CC1CCCCC1,active: 56.6%
20,COC(C[C@H]1O[C@@H]1[C@H](O)[C@H](C)OCc1ccccc1)OC,inconclusive: 47.4%
21,O=S(=O)(c1ccc(F)cc1)N1CCCC1,inactive: 5.08%
22,CCCCCC1(C)NC(=S)N(c2ccccc2)N1 (centres undefined),inactive: -2.64%
23,CO[C@H]1CN(C)C(=O)c2ccc(NC(=O)c3ccno3)cc2OC[C@H](C)NC[C@H]1C,inconclusive: 50.5%
24,Cc1nc2ccccc2nc(C)c1=NO,inconclusive: 47.8%
25,CS(=O)(=O)N(CCc1ccccc1)CC(=O)Nc1ccccc1,inactive: -10.1%
26,CC(=O)N1N=C(c2ccco2)CC1c1ccco1 (centres undefined),inconclusive: 48.7%
27,CC(C)CC#Cc1cnc2c(c1)C(=O)N([C@@H](C)CO)C[C@@H](C)[C@H](CN(C)C(=O)c1ccccc1)O2,inconclusive: 49.2%

row,Structure (SMILES),inhibition
1,COc1cccc(NC(=O)N2CC(=O)N3[C@H](CO)[C@H](c4ccc(C#CCC5CCCC5)cc4)[C@@H]3C2)c1,inactive: 0.2%
2,CC(C)N(C[C@@H]1[C@H](c2ccccc2)[C@@H](CO)N1S(C)(=O)=O)C(=O)CN(C)C,inactive: -0.876%
3,CCOc1ccccc1NC(=O)c1ccc2ccccc2c1,active: 88.2%
4,O=C(c1cc(C2CC2)on1)N1CCCC(N2CCN(c3cccc(C(F)(F)F)c3)CC2)C1 (centres undefined),inconclusive: 43.4%
5,CNC[C@@H](CC1CCCCC1)NC[C@H](CC(C)C)NCCc1cccc(C(F)(F)F)c1,active: 87.5%
6,COc1ccc(S(=O)(=O)N(C)C[C@H]2Oc3c(NS(=O)(=O)c4ccc(C)cc4)cccc3C(=O)N([C@H](C)CO)C[C@H]2C)cc1,inconclusive: 40.5%
7,CCCN(CC)c1ncnc2[nH]ncc12,inconclusive: 44.2%
8,Cc1ccc(C2CC2c2n[nH]c(=S)n2-c2ccc(Cl)cc2)cc1 (centres undefined),inconclusive: 45.1%
9,CCn1cnc2cc(NCc3ccc(N(C)C)cc3)ccc21,inconclusive: 40.1%
10,O=C(N/N=C\c1c[nH]c2ccccc12)c1ccc(O)cc1,inactive: 0.0705%
11,CCOC(=O)c1cc(S(=O)(=O)NCc2ccco2)cn1C,inactive: -4.04%
12,COC(=O)c1c(CC[C@@H](CO)NC(=O)N[C@@H](Cc2ccccc2)Cn2cc(-c3ccccc3)nn2)oc(C(=O)N2CCOCC2)c1C(=O)OC,inactive: 8.46%
13,CC(C)CC#Cc1ccc([C@@H]2[C@@H](CO)N3C(=O)CN(C(=O)c4ccccn4)C[C@@H]23)cc1,inactive: -0.754%
14,N/C(=N\OC(=O)c1cccc2ccccc12)c1ccccn1,inactive: 1.51%
15,O=C(c1ccc([N+](=O)[O-])s1)N1CCCc2ccccc21,inactive: -3.47%
16,Cc1nc2ccccc2c(=O)n1NC(=O)C1CCCCC1,inactive: -12.2%
17,COc1cccc(-n2c(Cc3cc(=O)[nH]c(=O)[nH]3)nnc2SCc2cccc(C(F)(F)F)c2)c1,inconclusive: 42%
18,COc1ccccc1NC(=O)N1[C@@H]2CNC[C@H]1[C@@H]2c1ccc(-c2ccc(C#N)cc2)cc1,inactive: 0.563%
19,Cc1cc(-c2nnc(SCC(=O)c3ccc(Cl)cc3)o2)no1,inactive: -8.5%
20,CC(C)[C@H](NC(=O)NCc1cccs1)C(=O)O,inconclusive: 85.4%
21,C[C@@H]1CN([C@H](C)CO)S(=O)(=O)c2ccc(-c3cccc(F)c3)cc2O[C@@H]1CN(C)C(=O)C1CC1,inactive: -5.89%
22,COC(=O)c1sccc1NC(=O)CSc1nnnn1-c1ccccc1C,inactive: -2.3%
23,C[C@@H]1CN([C@H](C)CO)C(=O)c2cc(NC(=O)Nc3ccccc3)ccc2O[C@@H](C)CCCCO[C@H]1CN(C)S(=O)(=O)c1ccc(Cl)cc1,inactive: -9.6%
24,Cc1noc(C)c1S(=O)(=O)Nc1ccc2c(c1)C(=O)N([C@H](C)CO)C[C@@H](C)[C@@H](CN(C)S(=O)(=O)c1cccs1)OCCCC[C@H](C)O2,inconclusive: 51.2%
25,COc1ccccc1NC(=O)N(C)C[C@@H]1Oc2ncc(Br)cc2C(=O)N([C@H](C)CO)C[C@H]1C,inactive: -5.07%

# Reference: PubChem BioAssay AID651687 (Broad Institute, 2012)
